# From patent publication US20050054047A1 (Amgen, published 2005)
# T1: human full length TWEAK (human, UniProt O43508 1-249)
# T1 construct: whole, on cells; CV-1 cells transfected with full length TWEAK were mixed 1:30 with Raji cells; also called TWEAK ligand
# T1 sequence (looked up): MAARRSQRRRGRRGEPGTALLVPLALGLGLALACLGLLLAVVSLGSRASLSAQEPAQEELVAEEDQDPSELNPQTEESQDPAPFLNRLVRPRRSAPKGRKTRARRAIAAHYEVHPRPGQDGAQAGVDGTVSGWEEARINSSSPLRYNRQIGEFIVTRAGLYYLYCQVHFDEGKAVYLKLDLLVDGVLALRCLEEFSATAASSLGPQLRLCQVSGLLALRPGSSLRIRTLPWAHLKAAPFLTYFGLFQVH
# B1: TWEAKR-Fc (Fc fusion)
# chain: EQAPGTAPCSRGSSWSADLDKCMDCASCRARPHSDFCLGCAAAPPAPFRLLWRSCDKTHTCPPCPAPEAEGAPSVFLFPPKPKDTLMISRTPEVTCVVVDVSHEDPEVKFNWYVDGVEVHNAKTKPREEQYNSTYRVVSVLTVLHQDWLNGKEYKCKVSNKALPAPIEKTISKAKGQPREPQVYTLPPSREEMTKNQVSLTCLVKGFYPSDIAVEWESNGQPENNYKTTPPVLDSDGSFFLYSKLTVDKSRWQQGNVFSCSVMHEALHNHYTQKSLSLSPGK
# notes: In the Scatchard analysis the protein was 125-I labeled; also called huTWEAKR:Fc; human TWEAK receptor-Fc
# Target: T1, human full length TWEAK
# Assay: Scatchard analysis, 125-I labeled TWEAKR-Fc on CV-1 cells transfected with full length TWEAK, 4 degrees C
# Description: The cells were incubated with serial dilutions of 125-I labeled human TWEAK receptor-Fc for 2 hours at 4 degrees Celsius. Free and bound probe was separated by microfuging the samples through a phalate oil mixture in plastic tubes. Supernatants and pellets were gamma-counted.
binder,measurement,value
B1,Ka,~4.5e+08 M⁻¹
